{"source": "PubChem BioAssay AID1476", "about": "(National Center for Advancing Translational Sciences (NCATS), 2009)", "note": "Out of some 200,000 compounds screened, about 4,500 (2.2%) were called active. Inconclusive results, whose numbers are uncertain, are shown with a selection of clear calls. Calls come from the whole dose curve; as a rule, active = well fitted inhibition curve with a large enough effect; inconclusive = small, poorly fitted or top-dose-only effect, or effect the other way; inactive = flat fitted curve, though single readings scatter. Potencies beside an inconclusive call are fits to weak or partial responses and may not hold up. Potency is the fitted concentration of half-maximal effect; tags give direction and shape of the fitted curve.", "data": [{"target": "Cruzipain (Trypanosoma cruzi) (UniProt P25779)", "sequence (P25779 whole entry, looked up)": "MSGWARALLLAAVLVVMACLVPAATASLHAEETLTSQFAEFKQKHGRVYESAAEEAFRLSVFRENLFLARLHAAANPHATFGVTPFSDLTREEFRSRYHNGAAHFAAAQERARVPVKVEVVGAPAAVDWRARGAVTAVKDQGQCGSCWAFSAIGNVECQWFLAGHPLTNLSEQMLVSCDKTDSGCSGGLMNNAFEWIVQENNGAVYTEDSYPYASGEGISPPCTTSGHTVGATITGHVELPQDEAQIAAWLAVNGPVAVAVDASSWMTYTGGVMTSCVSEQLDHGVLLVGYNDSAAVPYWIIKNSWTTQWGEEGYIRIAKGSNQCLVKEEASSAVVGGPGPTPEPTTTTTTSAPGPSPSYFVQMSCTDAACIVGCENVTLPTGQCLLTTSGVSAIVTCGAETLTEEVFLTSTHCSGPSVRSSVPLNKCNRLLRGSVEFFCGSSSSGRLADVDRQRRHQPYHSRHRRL", "assay": "qHTS Assay for Promiscuous and Specific Inhibitors of Cruzain (without detergent); note: nearly all actives have a fitted effect of over 40% in size;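 for max response, negative = inhibition: plate controls were enzyme without inhibitor for no effect and buffer without enzyme for full effect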", "settings": "purified cruzain, Z-FR-AMC fluorescence, no detergent", "in_short": "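Purified cruzain at 1.5 nM, pre-incubated 15 min with compound at room temperature in 100 mM sodium acetate pH 5.5, 5 mM DTT, 0.00005% Triton X-100. Reaction started with 2 uM Z-FR-AMC; AMC fluorescence increase over 60 s gives rate.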", "values": [{"smiles": "CCOC(=O)CSc1nnc(CSc2nc3sc4c(c3c(=O)[nH]2)CCCC4)n1-c1ccccc1", "Potency": "inconclusive: 31.6 µM [activator, single point]"}, {"smiles": "CC(C)NCc1c(O)c(Br)cc2oc3c(c12)CCCC3", "Potency": "active: 12.6 µM"}, {"smiles": "COc1ccc(CCNC(=O)c2cnc3scc(C)n3c2=O)cc1OC", "max response, negative = inhibition": "inactive: -7.63%"}, {"smiles": "OC[C@@H]1[C@@H](c2ccc(F)cc2)C(c2cccc(Cl)c2)=NN1c1ccccc1", "Potency": "active: 31.6 µM"}, {"smiles": "CCOc1ccc(NC(=O)CSc2nc3c(c(=O)n2-c2ccccc2OC)SCC3)cc1", "max response, negative = inhibition": "inactive: -2.8%"}, {"smiles": "CC(/C=C/c1ccccc1)=N/NC(=O)c1cc([N+](=O)[O-])cc([N+](=O)[O-])c1", "Potency": "inconclusive: 3.16 µM [inhibitor, single point]"}, {"smiles": "Cc1ccccc1NC(=O)Cn1nc(-c2ccccc2)nc(Cc2ccccc2)c1=O", "max response, negative = inhibition": "inactive: -8.18%"}, {"smiles": "COc1cc(C(=O)NNC(=S)NC(=O)c2ccc(Cl)cc2)cc(OC)c1OC", "Potency": "inconclusive: 31.6 µM [inhibitor, single point]"}, {"smiles": "CC1=C(C(=O)c2ccccc2)C(c2cn(-c3ccccc3)nc2-c2ccc(Cl)cc2)NC(=S)N1", "note": "(configuration not stated)", "Potency": "active: 10 µM"}, {"smiles": "Cc1ccc2c(=O)cc(C(=O)N(Cc3ccc(C(C)(C)C)cc3)C3CCS(=O)(=O)C3)oc2c1", "note": "(configuration not stated)", "Potency": "inconclusive: 25.1 µM [activator, single point]"}, {"smiles": "CCOC(=O)c1[nH]c(C)c(C(=O)N2CCN(c3cccc(Cl)c3)CC2)c1C", "Potency": "inconclusive: 31.6 µM [activator, single point]"}, {"smiles": "N#CC1=C(SCc2ccccc2)NC2=C(C(=O)CCC2)C1c1ccc2c(c1)OCO2", "note": "(configuration not stated)", "Potency": "inconclusive: 31.6 µM [inhibitor, single point]"}, {"smiles": "COc1ccc(NC(=O)Nc2nnc(N3CCCC3)s2)cc1", "max response, negative = inhibition": "inactive: 10.1%"}, {"smiles": "Cc1ccc(-c2cnc(-c3ccncc3)o2)cc1", "Potency": "inconclusive: 20 µM [activator, partial curve]"}, {"smiles": "Cc1cc(C)cc(N(CC(=O)NCCc2ccc(Cl)cc2)S(=O)(=O)c2c(C)noc2C)c1", "max response, negative = inhibition": "inactive: -0.768%"}, {"smiles": "Cc1ccc2c(c1)c1c(c(=O)n(-c3ccccc3)c(=O)n1Cc1ccccc1C)n2C", "max response, negative = inhibition": "inactive: -5.86%"}, {"smiles": "COc1ccc(OC)c(NC(=O)CSc2nc3ccccc3cc2Cc2ccccc2)c1", "Potency": "active: 20 µM"}, {"smiles": "Cc1ccc(CSc2nnc(CS(=O)Cc3ccc(Cl)cc3Cl)n2C)cc1", "note": "(configuration not stated)", "Potency": "inconclusive: 39.8 µM [activator, single point]"}, {"smiles": "Cc1oc2cc3oc(=O)c(CCC(=O)NCCc4ccccc4F)c(C)c3cc2c1C", "max response, negative = inhibition": "inactive: -12.2%"}, {"smiles": "Cc1ccc(C(=O)COC(=O)CCC(=O)Nc2ccc(Oc3ccccc3)cc2)cc1", "max response, negative = inhibition": "inactive: -24.5%"}, {"smiles": "COc1ccc(Cn2c(=O)c3oc4ccccc4c3n(CC(=O)Nc3c(C)cccc3C)c2=O)cc1", "max response, negative = inhibition": "inactive: -6.62%"}, {"smiles": "COc1ccc(/C=N/NC(=S)Nc2ccccc2)cc1COc1ccccc1F", "Potency": "active: 12.6 µM"}, {"smiles": "FC(F)(F)c1ccc(Cl)c(N/N=C/c2ccc(N3CCOCC3)s2)c1", "Potency": "active: 10 µM"}, {"smiles": "Cc1ccccc1OCC(=O)Nc1ccc(S(=O)(=O)N(Cc2ccccc2)c2ccccc2)cc1", "max response, negative = inhibition": "inactive: 4.75%"}, {"smiles": "O=C(CCC(=O)Nc1ccccc1Cl)N/N=C1\\CCCc2ccccc21", "Potency": "inconclusive: 39.8 µM [inhibitor, single point]"}, {"smiles": "CC(=O)Nc1ccc(NS(=O)(=O)c2c(C(=O)N3CCCCCC3)c(C)n(C)c2C)cc1", "max response, negative = inhibition": "inactive: -9.42%"}, {"smiles": "Cc1nc2cc(C(=O)OCC(=O)Nc3cccc(Cl)c3)ccc2n1-c1ccccc1", "Potency": "active: 25.1 µM"}, {"smiles": "CCC1CCc2c(sc(NC(=O)c3ccco3)c2C(N)=O)C1", "note": "(configuration not stated)", "Potency": "inconclusive: 31.6 µM [activator, single point]"}, {"smiles": "COc1ccc(OC)c(NC(=O)c2ccc(CN(c3cc(Cl)ccc3C)S(=O)(=O)c3ccccc3)cc2)c1", "Potency": "active: 10 µM"}, {"smiles": "CCc1cc2ccccc2nc1SCC(=O)Nc1cc(C)on1", "max response, negative = inhibition": "inactive: -7.9%"}, {"smiles": "COc1ccc(OC)c2[nH]c(=O)c(CCNC(=O)c3ccc(S(=O)(=O)N4CCCC4)cc3)cc12", "Potency": "inconclusive: 39.8 µM [activator, single point]"}, {"smiles": "CCOC(=O)c1c(-c2ccc(C)o2)csc1NC(=S)NC(=O)N(C)C", "Potency": "inconclusive: 39.8 µM [activator, single point]"}, {"smiles": "Cc1c(CCNC(=O)c2ccc(C(C)(C)C)cc2)sc2nc(-c3ccc(F)cc3)nn12", "Potency": "inconclusive: 6.31 µM [activator, single point]"}, {"smiles": "O=C1CC(N2CCC(O)(c3ccc(Cl)cc3)CC2)C(=O)N1Cc1ccc(N2CCCC2=O)cc1", "note": "(configuration not stated)", "Potency": "inconclusive: 31.6 µM [activator, single point]"}, {"smiles": "C/C(CC(O)c1ccc2ccccc2n1)=N/O", "note": "(configuration not stated)", "Potency": "inconclusive: 25.1 µM [inhibitor, single point]"}, {"smiles": "COc1ccc(N2CCN(S(=O)(=O)c3ccc(-c4coc(C)n4)cc3)CC2)cc1", "Potency": "inconclusive: 12.6 µM [activator, partial curve]"}, {"smiles": "COc1cccc(C(=O)NCC(=O)OCC(=O)Nc2cc(OC)c([N+](=O)[O-])cc2C)c1", "Potency": "inconclusive: 25.1 µM [inhibitor, single point]"}, {"smiles": "C/C(=N\\N=c1/scc(C)n1Cc1ccco1)c1cccc([N+](=O)[O-])c1", "Potency": "inconclusive: 20 µM [inhibitor, single point]"}, {"smiles": "COc1ccc(/C=N/NC(=O)CN(C2=NS(=O)(=O)c3ccccc32)c2ccccc2)cc1OC", "Potency": "inconclusive: 31.6 µM [activator, partial curve]"}, {"smiles": "Cc1cc(C)cc(N2C(=O)CSC23C(=O)N(Cc2c(F)cccc2Cl)c2ccccc23)c1", "note": "(configuration not stated)", "Potency": "inconclusive: 39.8 µM [inhibitor, single point]"}, {"smiles": "Cc1sc2ncnc(SCC(=O)c3ccc4c(c3)OCCO4)c2c1-c1ccccc1", "Potency": "active: 31.6 µM"}, {"smiles": "Cc1ccc2nc(SCc3nc(-c4ccc(Cl)cc4)no3)[nH]c2c1", "max response, negative = inhibition": "inactive: -3.91%"}, {"smiles": "CC(=O)Nc1ccccc1-c1nc2ccccc2n(CC(=O)Nc2cccc(C)c2C)c1=O", "Potency": "inconclusive: 6.31 µM [inhibitor, single point]"}, {"smiles": "CC(CNC(=O)c1cnn(-c2ccc(F)cc2)c1-n1cccc1)c1ccccc1", "note": "(configuration not stated)", "max response, negative = inhibition": "inactive: 3.53%"}, {"smiles": "COCCCn1c(=N)c(C(=O)NCC2CCCO2)cc2c(=O)n3cccc(C)c3nc21", "note": "(configuration not stated)", "Potency": "inconclusive: 25.1 µM [inhibitor, single point]"}, {"smiles": "CC(=O)N1CCN(c2ccccc2NC(=O)COc2cc(C)ccc2C(C)C)CC1", "Potency": "inconclusive: 31.6 µM [activator, single point]"}, {"smiles": "Cc1cc(C)c(N=Cc2c(O)n(-c3nccs3)c(=O)c3ccccc23)c(C)c1", "Potency": "inconclusive: 25.1 µM [inhibitor, single point]"}, {"smiles": "O=C(c1ccc(Br)o1)N1CCN(c2ccc3nnc(-c4ccc(F)cc4)n3n2)CC1", "Potency": "inconclusive: 20 µM [activator, partial curve]"}, {"smiles": "Cc1ccc(Oc2coc3cc(OC(=O)c4cccs4)ccc3c2=O)cc1", "Potency": "inconclusive: 10 µM [inhibitor, partial curve]"}, {"smiles": "O=C(CNC(=O)c1ccco1)NCC(=O)OCc1ccc(C(=O)Oc2ccc(Cl)cc2)cc1", "Potency": "inconclusive: 39.8 µM [inhibitor, single point]"}, {"smiles": "COc1ccc(C(C(=O)NC2CCCC2)N(C(=O)c2ccoc2C)c2ccc(C)cc2)cc1", "note": "(configuration not stated)", "max response, negative = inhibition": "inactive: -0.796%"}, {"smiles": "COc1ccc(N2C(=O)CCC(C(=O)N(C)C3CCCCC3)C2c2ccc(OC)c(OC)c2)cc1", "note": "(configuration not stated)", "Potency": "inconclusive: 31.6 µM [activator, single point]"}, {"smiles": "CSc1cccc(NC(=O)CSc2ncccc2C(=O)Oc2cccc([N+](=O)[O-])c2)c1", "Potency": "inconclusive: 39.8 µM [inhibitor, single point]"}, {"smiles": "Cc1ccc(CNC(=O)C2CCC(CNc3c(N4CCOCC4)c(=O)c3=O)CC2)cc1", "note": "(configuration not stated)", "max response, negative = inhibition": "inactive: -9.05%"}, {"smiles": "CCOCCCNC(=S)NCCCNc1nc2cc3c(cc2cc1C#N)OCO3", "Potency": "inconclusive: 25.1 µM [inhibitor, single point]"}, {"smiles": "O=C1c2ccccc2C(=O)N1c1ccc(S(=O)(=O)N2CCN(c3ccccc3)CC2)cc1", "Potency": "inconclusive: 39.8 µM [inhibitor, single point]"}, {"smiles": "O=C(OCc1cc(=O)n2nc(-c3cccs3)sc2n1)c1ccccc1Cl", "max response, negative = inhibition": "inactive: 9.86%"}, {"smiles": "COc1ccccc1N1CCN(c2ccc(=O)n(CC(=O)NCc3ccc(F)cc3)n2)CC1", "Potency": "inconclusive: 39.8 µM [activator, single point]"}, {"smiles": "Cc1nc(N)sc1-c1csc(NCc2ccccc2)n1", "Potency": "active: 31.6 µM"}, {"smiles": "Cc1cc(Br)ccc1NC(=O)CSc1c2c(nc3ccccc13)CCC2", "Potency": "inconclusive: 39.8 µM [inhibitor, single point]"}, {"smiles": "CCOc1ccc(CC(=NCCc2ccccc2)C2=C(O)CC(C)(C)CC2=O)cc1OCC", "Potency": "inconclusive: 31.6 µM [activator, single point]"}, {"smiles": "Cc1cc(C(=O)COC(=O)c2ccc(N)c([N+](=O)[O-])c2)c(C)n1-c1ccc2c(c1)OCO2", "Potency": "active: 12.6 µM"}, {"smiles": "Cc1ccc(-c2nn3c(=O)c(C)nnc3s2)cc1", "max response, negative = inhibition": "inactive: -8.51%"}, {"smiles": "COc1ccc(C(=O)N2CCC3(CCCN(Cc4ccccc4OC)C3)CC2)cc1", "max response, negative = inhibition": "inactive: -9.12%"}, {"smiles": "c1ccc2c(c1)c1ccccc1n2Cn1c2ccccc2c2ccccc21", "max response, negative = inhibition": "inactive: -4.95%"}, {"smiles": "CCc1nnc(NC(=O)CSc2nccn2Cc2ccccc2)s1", "max response, negative = inhibition": "inactive: -11.4%"}, {"smiles": "Cc1noc(-c2ccc(N3CCCCC3C)c([N+](=O)[O-])c2)n1", "note": "(configuration not stated)", "Potency": "inconclusive: 39.8 µM [inhibitor, single point]"}]}]}
